Measurements as given in patent publication US20240207427A1, “SELECTIVE DRUG RELEASE FROM INTERNALIZED CONJUGATES OF BIOLOGICALLY ACTIVE COMPOUNDS” (priority 2021, published 2024).

Experiments:
Parameters in all cases: species or system SCID or nude mice
L428 xenograft = test: In vivo xenograft model, L428; conditions: L428, single dose 2 or 6 mg/kg intraperitoneal, FIGS. 24A and 24B
Experimental: (§1) All experiments were conducted in concordance with the Animal Care and Use Committee in a facility fully accredited by the Association for Assessment and Accreditation of Laboratory Animal Care. Efficacy experiments were conducted in the L428, KMH2, Karpas/Karpas-BVR, DelBVR, and Caki-1 xenografts models. Tumor cells, as a cell suspension, were implanted sub-cutaneous in immune-compromised SCID or nude mice. Upon tumor engraftment, mice were randomized to study groups (5 mice per group) when the average tumor volume reached about 100 mm3. The ADC or controls were dosed once via intraperitoneal injection. The average number of drug-linker attached to an antibody is indicated in the parenthesis next to the ADC (also referred to herein as Drug-Antibody Ratio (DAR) number, e.g., DAR4, DAR8, etc.). Tumor volume as a function of time was determined using the formula (L×W2)/2. Animals were euthanized when tumor volumes reached 750 mm3. Mice showing durable regressions were terminated after 10-12 weeks post implant.
Animals were implanted with L428 cells. […] Animals were evaluated for tumor size and in-life signs during the course of the study.

[1] = tested on: Del-brentuximab vedotin resistant (DELBVR) xenograft; test: In vivo xenograft model, DELBVR; conditions: single dose 0.3 or 0.9 mg/kg, FIG. 25A-C
Experimental: as §1
Animals were implanted with Del-brentuximab vedotin resistant (DELBVR) cells. […] Animals were evaluated for tumor size and in-life signs during the course of the study.

[2] = tested on: 1:1 mixture of CD30+ Karpas299 and CD30- Karpas299-BVR cells xenograft; test: In vivo xenograft model, Karpas299/Karpas299-BVR 1:1; conditions: single dose 0.5 and 1.5 mg/kg, FIG. 26
Experimental: as §1
Animals were implanted with a 1:1 mixture of CD30+ Karpas299 and CD30-Karpas299-brentuximab vedotin resistant (Karpas299-BVR) cells. […] Animals were evaluated for tumor size and in-life signs during the course of the study.

Row | Molecule | in vivo anti-tumor activity (L428 xenograft) | in vivo anti-tumor activity [1] | in vivo anti-tumor activity [2]
1 | cAC10-Compound 43(8) (conjugate, chains of the INN, looked up, Compound 43 payload, DAR 8) heavy: QIQLQQSGPEVVKPGASVKISCKASGYTFTDYYITWVKQKPGQGLEWIGWIYPGSGNTKYNEKFKGKATLTVDTSSSTAFMQLSSLTSEDTAVYFCANYGNYWFAYWGQGTQVTVSA[human IgG1 constant region left out] light: DIVLTQSPASLAVSLGQRATISCKASQSVDFDGDSYMNWYQQKPGQPPKVLIYAASNLESGIPARFSGSGSGTDFTLNIHPVEEEDAATYYCQQSNEDPWTFGGGTKLEIKRTVAAPSVFIFPPSDEQLKSGTASVVCLLNNFYPREAKVQWKVDNALQSGNSQESVTEQDSKDSTYSLSSTLTLSKADYEKHKVYACEVTHQGLSSPVTKSFNRGEC | displayed in vivo anti-tumor activities | displayed in vivo anti-tumor activities | displayed in vivo anti-tumor activities
2 | cAC10-Compound 43b(8) (conjugate, chains of the INN, looked up, Compound 43b payload, DAR 8) heavy: QIQLQQSGPEVVKPGASVKISCKASGYTFTDYYITWVKQKPGQGLEWIGWIYPGSGNTKYNEKFKGKATLTVDTSSSTAFMQLSSLTSEDTAVYFCANYGNYWFAYWGQGTQVTVSA[human IgG1 constant region left out] light: DIVLTQSPASLAVSLGQRATISCKASQSVDFDGDSYMNWYQQKPGQPPKVLIYAASNLESGIPARFSGSGSGTDFTLNIHPVEEEDAATYYCQQSNEDPWTFGGGTKLEIKRTVAAPSVFIFPPSDEQLKSGTASVVCLLNNFYPREAKVQWKVDNALQSGNSQESVTEQDSKDSTYSLSSTLTLSKADYEKHKVYACEVTHQGLSSPVTKSFNRGEC | displayed in vivo anti-tumor activities | displayed in vivo anti-tumor activities | 
3 | cAC10-Compound 43a(8) (conjugate, chains of the INN, looked up, Compound 43a payload, DAR 8) heavy: QIQLQQSGPEVVKPGASVKISCKASGYTFTDYYITWVKQKPGQGLEWIGWIYPGSGNTKYNEKFKGKATLTVDTSSSTAFMQLSSLTSEDTAVYFCANYGNYWFAYWGQGTQVTVSA[human IgG1 constant region left out] light: DIVLTQSPASLAVSLGQRATISCKASQSVDFDGDSYMNWYQQKPGQPPKVLIYAASNLESGIPARFSGSGSGTDFTLNIHPVEEEDAATYYCQQSNEDPWTFGGGTKLEIKRTVAAPSVFIFPPSDEQLKSGTASVVCLLNNFYPREAKVQWKVDNALQSGNSQESVTEQDSKDSTYSLSSTLTLSKADYEKHKVYACEVTHQGLSSPVTKSFNRGEC | displayed in vivo anti-tumor activities | displayed in vivo anti-tumor activities | 
